Measured values: PubChem BioAssay (NCATS)
Where “and” joins values, the source holds several entries; their conditions need not be identical. Identical values can stand only once. Inconclusive results, whose numbers are uncertain, are shown with a selection of clear calls. Where the call is inconclusive, the potency comes from a doubtful curve fit. Calls of active or inactive are those of the source. The call rests on the fitted dose curve; in most records, active means well fitted inhibition curve with a large enough effect; inconclusive means small, poorly fitted or top-dose-only effect; inactive means flat fitted curve, though single readings scatter.
Potency means the concentration at half of the fitted maximal effect; tags describe the fitted curve by direction and shape.

These molecules were tested on Zika virus NS2B-NS3 protease (unlinked complex) (assay: Confirmatory screen GU AMC qHTS for Zika virus inhibitors (AID 1347153; further: nearly all actives have a fitted effect of over 70% in size;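 on activity, negative = inhibition: percent inhibition with 0% = no inhibitor control and 100% = no enzyme control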)). Settings: Recombinant NS2B-NS3 protease, AMC substrate fluorescence; series mostly up to 57.1 µM; activity, negative = inhibition: at the top concentration.
From the text: Assay Submitters (PI): Avindra Nath, Ph.D., National Institute of Neurological Disorders and Stroke (NINDS), Bethesda, MD Radhakrishnan Padmanabhan, Ph.D., Georgetown University (GU), Washington D.C. Zika Virus causes congenital defects, including microcephaly and is associated with Guillain-Barre syndrome, eningoencephalitis and myelitis in infected adult. […] Using a target-based approach, we hope to establish a screening paradigm to uncover novel, cell-active NS2B-NS3 protease (Zika Virus) specific inhibitors from NCATS' collection of small molecules using qHTS. […] Active compounds in the primary screen are re-acquired and re-screened to confirm NS2B-NS3 protease inhibition. Early Translation Branch (ETB) National Center for Advancing Translational Sciences (NCATS), Rockville, MD National Institute of Health (NIH), Bethesda, Maryland
Materials: Padmanabhan lab provided the NS2B hydrophilic domain and NS3 protease domain in a noncovalent complex used for the unlinked assay. Control compound aprotinin is obtained from Thermo Scientific (#78432; Waltham, Massachusetts). NS2B-NS3 AMC substrate (Bz-Nle-Lys-Arg-Arg-AMC; Nle-KRR-AMC) purchased from Bachem (#I-1995; Torrance, CA). Ac-VKTGKR-AMC purchased from Genscript or Bachem, Ac-FAAGKR-AMC purchased from Genscript, Ac-GLVKRR-AMC purchased from Genscript, Ac-LKKR-AMC purchased from Genscript. GU AMC unlinked NS2B-NS3 protease qHTS protocol: Briefly, 3 microL of Zika virus unlinked NS2B-NS3 protease (25 nM for linked final concentration), in assay buffer (10 mM Tris-HCl pH 8.0 with 0.01% Tween 20) was dispensed into a 1,536-well solid-bottom black plate (Greiner Bio One, Monroe, NC). Twenty-three nL of compounds (final concentration range 7.28 nM to 114 microM) or control Aprotinin (final concentration range 3.47 nM to 114 microM) were transferred via Wako Pin-tool (Wako Automation, Richmond, VA). Samples were incubated (room temperature, protected from light) for 15 minutes followed by a 1 microL AMC substrate addition of (final concentration of 10 microM; Km = 18.3 µM). Plates were then read immediately on a ViewLux High-throughput CCD imager (PerkinElmer, Waltham, MA) equipped with standard UV fluorescence optics (340(30) nm excitation, 450(20) nm emission) then incubated (room temperature, protected from light) for 15 minutes (~20% conversion). The change in fluorescence intensity over the 15-minute reaction period was normalized against no-inhibitor and no-enzyme controls and the resulting percent inhibition data were fitted to a 4-parameter Hill equation. Aprotinin was used as the intraplate control.
`Cc1c(OCC(F)(F)F)ccnc1CS(=O)c1nc2ccccc2[nH]1` (stereo not given) was tested, and the “activity, negative = inhibition” value was inactive: 14.7%. `CCn1cc(C(=O)O)c(=O)c2cc(F)c(N3CCNC(C)C3)c(F)c21` (stereo not given) was tested, and the Potency was inconclusive: 21.5 µM [inhibitor, partial curve] and inconclusive: 27.1 µM [inhibitor, single point]. In the case of `O=C1Cc2cc(CCN3CCN(c4nsc5ccccc45)CC3)c(Cl)cc2N1`, the Potency was inconclusive: 30.4 µM [inhibitor, single point]. With `Cc1cc(OCCCc2c(C(=O)O)n(Cc3cccnc3)c3c(-c4c(COc5ccc(N6CCN([S+](C)(=O)[O-])CC6)cc5)nn(C)c4C)cccc23)cc(C)c1Cl` the Potency was inconclusive: 21.5 µM [inhibitor, partial curve, poor fit]. In the case of `O=C(O)Cc1cccc(OCCCN(Cc2cccc(C(F)(F)F)c2Cl)CC(c2ccccc2)c2ccccc2)c1`, the Potency was active: 17.1 µM. In the case of `O=c1c2ccccc2nc2n1CCc1c-2[nH]c2ccccc12`, the Potency was inconclusive: 21.5 µM [inhibitor, partial curve]. With `O=C1NC(=O)/C(=C/c2ccc3c(c2)OC(F)(F)O3)S1` the Potency was inconclusive: 44.1 µM [inhibitor, partial curve]. In the case of `Cc1[nH]c(=O)c(C#N)cc1-c1ccncc1`, the “activity, negative = inhibition” value was inactive: -8.82%. For `CC(C)c1ccc2c(c1)c(SC(C)(C)C)c(CC(C)(C)C(=O)O)n2Cc1ccc(Cl)cc1`, the Potency was inconclusive: 7.64 µM [inhibitor, full curve]. For `CS(=O)c1ccc(-c2nc(-c3ccc(F)cc3)c(-c3ccncc3)[nH]2)cc1` (stereo not given), the Potency was inconclusive: 21.5 µM [inhibitor, partial curve]. `Nc1ccc(-c2ccc3ccccc3n2)cc1` was tested, and the “activity, negative = inhibition” value was inactive: -23.8%. For `CN(C)c1cc(NC(=O)CNC(C)(C)C)c(O)c2c1C[C@@H]1C[C@H]3[C@H](N(C)C)C(=O)C(C(N)=O)=C(O)[C@@]3(O)C(=O)C1=C2O`, the Potency was inconclusive: 19.2 µM [inhibitor, partial curve]. For `Cc1nc(-c2ccc(OCC(C)C)c(C#N)c2)sc1C(=O)O`, the “activity, negative = inhibition” value was inactive: -21%. `NC(=O)c1cccc2[nH]c(-c3ccc([C@H]4CCCN4)cc3F)nc12` was tested, and the Potency was inconclusive: 15.2 µM [inhibitor, single point]. For `CN1CCN(c2cc3c(nn2)Oc2ccccc2N3C)CC1`, the Potency was inconclusive: 10.5 µM [inhibitor, partial curve, poor fit].
